Experimental data reported in ChEMBL document CHEMBL5308541, “MAIP: An Open-Source Tool to Enrich High-Throughput Screening Output and Identify Novel, Druglike Molecules with Antimalarial Activity” (ACS Med Chem Lett, 2023).
Hit rate of the full screen: of about 150,000 compounds, about 540 (0.36%) showed an effect of 50% or more. The list shows a part of the results.

test system: Plasmodium falciparum; assay: Primary screen in NF54 nanoGlo assay, in single point, at 2uM, 72h; a lower Z score goes with more inhibition; format: functional, Erythrocyte; conditions: timepoint 72 hour

Row | Structure (SMILES) | % Inhibition [%] | Z score
1 | CC(=O)N1CCC(N[C@@H]2C[C@@H](O)[C@H](CO)[C@H]2Cc2ccnc(-c3cccc(C(F)(F)F)c3)n2)CC1 | -5 | 0.69
2 | COc1ccccc1N1CCN([C@@H]2[C@H](O)[C@H](CO)O[C@@H]2CNC2CCN(C)CC2)CC1 | 3 | -0.41
3 | CN1CCN(c2ccc(CNCCN3CCN(C(=O)OC(C)(C)C)CC3)cc2)CC1 | 1 | -0.16
4 | Clc1cnc(C2CCN(Cc3ccc4cn[nH]c4c3)CC2)nc1 | 2 | -0.29
5 | O=S1(=O)CCCN1c1cccc(CNC2CCC(c3ccccc3)CC2)c1 (centres undefined) | -6 | 1.12
6 | CC(C)(C)OC(=O)N1CC(O)(CNc2ncnc3cc(F)c(F)cc23)C1 | -6 | 1.11
7 | Cc1cc(C)c2c(NCCN3CCN(Cc4ccccc4)CC3)ncnc2n1 | -13 | 2.29
8 | COCCc1noc(-c2ccc(N3CCCN(c4ccncc4C)CC3)nc2)n1 | 7 | -1.44
9 | CN(CCc1ccncc1)C(=O)N[C@H]1CCOC2(CCCCC2)C1 | 1 | -0.18
10 | CN1C2CCC1CN(C(=O)c1cccc(-c3cccc4c(N)ccnc34)c1)CC2 (centres undefined) | 5 | -0.79
11 | O=C(CCC1CCCC1)N1CC2CN(c3ncnc4[nH]ccc34)CC2(CO)C1 (centres undefined) | -9 | 1.56
12 | CC1(C)CC(NCc2csc(-c3ccsc3)n2)CC(C)(C)N1 | 1 | -0.19
13 | COc1ccc(OC)c([C@H]2CCN(C(=O)c3ccnc4ccccc34)C2)c1 | 3 | -0.5
14 | C[C@@H](CN1CCCCCC1)N1CCCN(S(=O)(=O)N2CCCC2)CC1 | -2 | 0.26
15 | OCc1nc2cc(-c3cccc4[nH]ccc34)ccc2[nH]1 | -5 | 0.9
16 | Cc1cccc(CCNC(=O)N2CC3CCC2C3)n1 (centres undefined) | -6 | 1.37
17 | Cc1cccc(Nc2nc(N)nc(CN(C)C3CC4CC(=O)N(C)CC4C3)n2)c1 (centres undefined) | -7 | 1.04
18 | COCCC1(NC(=O)c2cc(-c3cnc4[nH]ccc4c3)ccn2)CCNCC1 | -21 | 3.26
19 | C[C@@H]1C(=O)N2CCC[C@@H]2CN1C(=O)c1cc(-c2ccc(Cl)cc2)nc2ccccc12 | 9 | -1.73
20 | COCCN1CCC(CNc2nncc(-c3c(OC)cccc3OC)n2)CC1 | -3 | 0.58
21 | c1ccc(N2CCN(Cc3ccc(OC[C@H]4CCCNC4)cc3)CC2)cc1 | -4 | 0.64
22 | COc1ccc2oc([C@H](C)NCc3cnc(C)o3)c(C)c2c1 | -5 | 0.94
23 | Cc1nn(C)c(C)c1-c1cc(C(=O)NC2CCN(CC(F)F)CC2)[nH]n1 | -7 | 1.14
24 | Cc1ccc(NC(=O)N2CCC(=O)N3CCOC[C@H]32)cc1 | -10 | 1.54
25 | CCCN(Cc1nnc(-c2ccco2)o1)C(=O)COc1ccc2oc3ccccc3c2c1 | 4 | -0.76
26 | CC(C)(C)OC(=O)N1CCN(CC(O)CN2CCCC2CO)CC1 (centres undefined) | -3 | 0.65

Row | Structure (SMILES) | % Inhibition [%] | Z score
27 | O=C(Cc1[nH]nc2ccccc12)N1CC2CCCC(O)(c3ccccc3)C2C1 (centres undefined) | 2 | -0.43
28 | COc1cccc(-c2cc3cc(Cl)ccc3[nH]2)c1 | -1 | 0.15
29 | c1nc(NCC2CC2)cc(N2CCC[C@H](N3CCCC3)CC2)n1 | -12 | 2.03
30 | CCNc1ncc(C(=O)NC(C2CCNCC2)[C@H]2C[C@H](O)C2)cn1 (some centres undefined) | -3 | 0.54
31 | CC(C)C[C@@H](CN=C(N)NC(C)C)N(C)C | 8 | -1.63
32 | CN(C[C@H](O)CN1CCc2ccccc2CC1)C(=O)c1cc(-c2ccc(F)cc2)[nH]n1 | 3 | -0.47
33 | O=C1NC[C@@H](O)CC12CCN(c1nnc(Cc3ccccc3)s1)CC2 | -3 | 0.44
34 | OC1CCC1Nc1ncnc2cc(F)ccc12 (centres undefined) | -2 | 0.37
35 | Cc1ccc(CN2CCc3onc(-c4ccccc4)c3C2)c2cccnc12 | 4 | -0.82
36 | OCC[C@]1(CNc2nccc(N3CCOCC3)n2)CCOC1 | -1 | 0.16
37 | COCCNc1noc(-c2ccc(Cl)cc2)c1C(=O)NC1CNCCC1OC (centres undefined) | 2 | -0.38
38 | CN1C[C@@H](NC(=O)c2ccc(-c3ccc4c(ccn4C)c3)cc2)CCC1=O | 2 | -0.38
39 | CN(CCCNC1CCC2(CCNCC2)CC1)c1ccccc1 | 6 | -1.27
40 | O=C(NCc1ccc2c(O)ccnc2c1)[C@@H]1CCCN1C1CCCC1 | -6 | 1.08
41 | O=C(Nc1ccc2cn[nH]c2c1)NC1CCN(C2CCOCC2)CC1 | -4 | 0.84
42 | COC[C@@H](C)CC(=O)Nc1cncc(-c2cnc3[nH]ccc3c2)c1 | -19 | 3.39
43 | CCN1CCN(C(=O)N2CCCC[C@H](c3ccc(F)cc3)C2)C(=O)C1=O | 6 | -1.01
44 | CCCCN1CCn2nc(CNC(=O)c3ccc4c(c3)CCCO4)cc2C1 | -4 | 0.87
45 | CC1CN(CCNCc2cccc(-c3ccccc3)c2)CC(C)O1 (centres undefined) | -14 | 3.03
46 | CC(C)Nc1nc(N)nc2c1CCN(C(=O)C1(C)CCNCC1)CC2 | -4 | 0.66
47 | CC(=O)NCc1ccc([C@@H]2CCCN2C(=O)c2cc(F)c(F)c(O)c2F)o1 | 4 | -0.77
48 | Cn1nc(-c2ccco2)cc1NC(=O)N1CCCC2(CCCCC2)C1 | -10 | 1.45
49 | CN(C)c1cc(CNc2nc3cccnc3nc2NCc2ccnc(N(C)C)c2)ccn1 | -9 | 1.6
50 | Cn1ncc2c(N)nc(N[C@H]3CCN(c4ccc(F)cc4F)C3)nc21 | 3 | -0.38
51 | CC(C)(NCCCc1ccccc1)C(=O)NC1CCC(O)CC1 (centres undefined) | 7 | -1.29
52 | c1cnc(N2CCOCC2)c(CNC2CCN(c3ccncc3)CC2)c1 | 9 | -1.69
